# From the supplement of paper PMC8728848
# This is one part of the list.
# B1: EEA (Euonymus europaeus) (protein)
# chain: MASTIIATGPTYRVYCRAAPNYNMIVGKGVAFLAPIDETNELQYWYKDDTYSYIKDEAGLPAFSLVNKATGLTLKHSNHHPVPVKLVTYNPNVVDESVLWSQADDRGDGYSAIRSLTNPASHLEAAPLNDWSYNGAIIMGGVWIDAYNQQWKIEPHTG
# What was measured:
# Test in all cases: glycan array binding signal (z-score within array); higher = stronger binding
# Conditions in all cases: glycan notation: IUPAC condensed, linker removed
# [1] = target: GlcNAc(b1-4)GlcNAc(b1-4)GlcNAc
# Summary of the method: (§1)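 From the Consortium for Functional Glycomics database, 3228 arrays were curated, keeping only those whose protein sequence was available. Binding is given as a within-array Z-score averaged across arrays sharing a protein sequence and across linkers. Negative Z-scores can be read as non-binding.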
# [2] = target: GlcNAc(b1-4)GlcNAc(b1-4)GlcNAc(b1-4)GlcNAc(b1-4)GlcNAc
# Summary of the method: as §1
# [3] = target: GlcNAc(b1-4)GlcNAc(b1-4)GlcNAc(b1-4)GlcNAc(b1-4)GlcNAc(b1-4)GlcNAc
# Summary of the method: as §1
# [4] = target: GlcNAc(b1-4)[GlcNAc(b1-6)]GalNAc
# Summary of the method: as §1
# [5] = target: GlcNAc(b1-6)Gal(b1-4)GlcNAc
# Summary of the method: as §1
# [6] = target: GlcNAc(b1-6)GalNAc
# Summary of the method: as §1
# [7] = target: GlcNAc3Prop(b1-4)GlcNAc
# Summary of the method: as §1
# [8] = target: GlcNAc6S(b1-3)Gal(b1-4)GlcNAc
# Summary of the method: as §1
# [9] = target: Kdn(a2-3)Gal(b1-3)GalNAc
# Summary of the method: as §1
# [10] = target: Kdn(a2-3)Gal(b1-3)GlcNAc
# Summary of the method: as §1
# [11] = target: Kdn(a2-3)Gal(b1-4)Glc
# Summary of the method: as §1
# [12] = target: Kdn(a2-3)Gal(b1-4)GlcNAc
# Summary of the method: as §1
# [13] = target: Kdn(a2-3)Gal(b1-4)[Fuc(a1-3)]GlcNAc
# Summary of the method: as §1
# [14] = target: Kdn(a2-6)Gal(b1-4)GlcNAc
# Summary of the method: as §1
# [15] = target: Man(a1-2)Man(a1-2)Man(a1-3)Man
# Summary of the method: as §1
# [16] = target: Man(a1-2)Man(a1-2)Man(a1-3)[Man(a1-2)Man(a1-3)[Man(a1-2)Man(a1-6)]Man(a1-6)]Man(b1-4)GlcNAc(b1-4)GlcNAc
# Summary of the method: as §1
# [17] = target: Man(a1-2)Man(a1-2)Man(a1-3)[Man(a1-2)Man(a1-6)[Man(a1-3)]Man(a1-6)]Man(b1-4)GlcNAc(b1-4)GlcNAc
# Summary of the method: as §1
# [18] = target: Man(a1-2)Man(a1-2)Man(a1-6)[Man(a1-3)]Man
# Summary of the method: as §1
# [19] = target: Man(a1-2)Man(a1-3)Man
# Summary of the method: as §1
# [20] = target: Man(a1-2)Man(a1-3)[Man(a1-2)Man(a1-6)]Man
# Summary of the method: as §1
# [21] = target: Man(a1-2)Man(a1-3)[Man(a1-2)Man(a1-6)]Man(a1-6)[Man(a1-2)Man(a1-2)Man(a1-3)]Man
# Summary of the method: as §1
# [22] = target: Man(a1-2)Man(a1-3)[Man(a1-2)Man(a1-6)]Man(a1-6)[Man(a1-2)Man(a1-2)Man(a1-3)]Man(b1-4)GlcNAc(b1-4)GlcNAc
# Summary of the method: as §1
# [23] = target: Man(a1-2)Man(a1-3)[Man(a1-3)[Man(a1-6)]Man(a1-6)]Man(b1-4)GlcNAc(b1-4)GlcNAc
# Summary of the method: as §1
# [24] = target: Man(a1-2)Man(a1-3)[Man(a1-6)]Man(a1-6)[Man(a1-2)Man(a1-3)]Man(b1-4)GlcNAc(b1-4)GlcNAc
# Summary of the method: as §1
# [25] = target: Man(a1-2)Man(a1-6)[Man(a1-3)]Man(a1-6)[Man(a1-2)Man(a1-2)Man(a1-3)]Man
# Summary of the method: as §1
# [26] = target: Man(a1-2)Man(a1-6)[Man(a1-3)]Man(a1-6)[Man(a1-2)Man(a1-2)Man(a1-3)]Man(b1-4)GlcNAc(b1-4)GlcNAc
# Summary of the method: as §1
# [27] = target: Man(a1-3)[Man(a1-6)]Man
# Summary of the method: as §1
# [28] = target: Man(a1-3)[Man(a1-6)]Man(a1-6)[Man(a1-2)Man(a1-3)]Man(b1-4)GlcNAc(b1-4)GlcNAc
# Summary of the method: as §1
# [29] = target: Man(a1-3)[Man(a1-6)]Man(a1-6)[Man(a1-3)]Man
# Summary of the method: as §1
# [30] = target: Man(a1-3)[Man(a1-6)]Man(a1-6)[Man(a1-3)]Man(b1-4)GlcNAc(b1-4)GlcNAc
# Summary of the method: as §1
# [31] = target: Man(a1-3)[Man(a1-6)]Man(b1-4)GlcNAc(b1-4)GlcNAc
# Summary of the method: as §1
# [32] = target: Man(a1-3)[Man(a1-6)]Man(b1-4)GlcNAc(b1-4)[Fuc(a1-6)]GlcNAc
# Summary of the method: as §1
# [33] = target: Man(a1-6)Man
# Summary of the method: as §1
# [34] = target: Man(b1-4)GlcNAc
# Summary of the method: as §1
# [35] = target: MurNAc(b1-4)GlcNAc
# Summary of the method: as §1
# [36] = target: Neu5Ac(a2-3)Gal
# Summary of the method: as §1
# [37] = target: Neu5Ac(a2-3)Gal(b1-3)GalNAc
# Summary of the method: as §1
# [38] = target: Neu5Ac(a2-3)Gal(b1-3)GalNAc(b1-3)Gal(a1-4)Gal(b1-4)Glc
# Summary of the method: as §1
# [39] = target: Neu5Ac(a2-3)Gal(b1-3)GalNAc(b1-3)Gal(b1-4)GlcNAc
# Summary of the method: as §1
# [40] = target: Neu5Ac(a2-3)Gal(b1-3)GalNAc(b1-4)[Neu5Ac(a2-3)]Gal(b1-4)Glc
# Summary of the method: as §1
# [41] = target: Neu5Ac(a2-3)Gal(b1-3)GalNAc(b1-4)[Neu5Ac(a2-8)Neu5Ac(a2-3)]Gal(b1-4)Glc
# Summary of the method: as §1
# [42] = target: Neu5Ac(a2-3)Gal(b1-3)GalNAc6S
# Summary of the method: as §1
# [43] = target: Neu5Ac(a2-3)Gal(b1-3)GlcNAc
# Summary of the method: as §1
# [44] = target: Neu5Ac(a2-3)Gal(b1-3)GlcNAc(b1-2)Man
# Summary of the method: as §1
# [45] = target: Neu5Ac(a2-3)Gal(b1-3)GlcNAc(b1-2)Man(a1-3)[GlcNAc(b1-4)][Neu5Ac(a2-3)Gal(b1-3)GlcNAc(b1-2)Man(a1-6)]Man(b1-4)GlcNAc(b1-4)GlcNAc
# Summary of the method: as §1
binder,measurement,setting,value
B1,glycan array binding signal (z-score),[1],-0.067
same,glycan array binding signal (z-score),[2],-0.058
same,glycan array binding signal (z-score),[3],-0.03
same,glycan array binding signal (z-score),[4],-0.204
same,glycan array binding signal (z-score),[5],0.013
same,glycan array binding signal (z-score),[6],-0.056
same,glycan array binding signal (z-score),[7],-0.254
same,glycan array binding signal (z-score),[8],-0.236
same,glycan array binding signal (z-score),[9],-0.093
same,glycan array binding signal (z-score),[10],-0.21
same,glycan array binding signal (z-score),[11],-0.177
same,glycan array binding signal (z-score),[12],-0.196
same,glycan array binding signal (z-score),[13],-0.179
same,glycan array binding signal (z-score),[14],-0.179
same,glycan array binding signal (z-score),[15],-0.22
same,glycan array binding signal (z-score),[16],-0.18
same,glycan array binding signal (z-score),[17],-0.098
same,glycan array binding signal (z-score),[18],-0.197
same,glycan array binding signal (z-score),[19],-0.14
same,glycan array binding signal (z-score),[20],-0.291
same,glycan array binding signal (z-score),[21],-0.213
same,glycan array binding signal (z-score),[22],-0.112
same,glycan array binding signal (z-score),[23],-0.093
same,glycan array binding signal (z-score),[24],-0.013
same,glycan array binding signal (z-score),[25],-0.228
same,glycan array binding signal (z-score),[26],0.811
same,glycan array binding signal (z-score),[27],-0.159
same,glycan array binding signal (z-score),[28],0.066
same,glycan array binding signal (z-score),[29],-0.12
same,glycan array binding signal (z-score),[30],1.16
same,glycan array binding signal (z-score),[31],-0.186
same,glycan array binding signal (z-score),[32],-0.211
same,glycan array binding signal (z-score),[33],-0.169
same,glycan array binding signal (z-score),[34],-0.125
same,glycan array binding signal (z-score),[35],-0.199
same,glycan array binding signal (z-score),[36],-0.154
same,glycan array binding signal (z-score),[37],-0.163
same,glycan array binding signal (z-score),[38],-0.24
same,glycan array binding signal (z-score),[39],0.029
same,glycan array binding signal (z-score),[40],-0.223
same,glycan array binding signal (z-score),[41],-0.195
same,glycan array binding signal (z-score),[42],-0.231
same,glycan array binding signal (z-score),[43],-0.171
same,glycan array binding signal (z-score),[44],-0.109
same,glycan array binding signal (z-score),[45],-0.134
